Laboratory results from PubChem BioAssay AID360 (National Center for Advancing Translational Sciences (NCATS), 2006).
About 550 (1.1%) of roughly 48,000 compounds were called active. Not shown: some 4% with an inconclusive outcome. No stated cut-off is given here; in the data, active means potency below about 15 µM; inconclusive means mostly about 16 µM to 33 µM; inactive means weaker than that. This is one part of the list.

biological target: Lysosomal acid glucosylceramidase (Homo sapiens) (UniProt P04062); assay: Glucocerebrosidase; settings: purified enzyme, resorufin glucoside fluorescence (screen aimed at inhibitors), 20 min;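 further: the screen sought inhibitors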
Chain of UniProt P04062 (P04062 whole entry, looked up): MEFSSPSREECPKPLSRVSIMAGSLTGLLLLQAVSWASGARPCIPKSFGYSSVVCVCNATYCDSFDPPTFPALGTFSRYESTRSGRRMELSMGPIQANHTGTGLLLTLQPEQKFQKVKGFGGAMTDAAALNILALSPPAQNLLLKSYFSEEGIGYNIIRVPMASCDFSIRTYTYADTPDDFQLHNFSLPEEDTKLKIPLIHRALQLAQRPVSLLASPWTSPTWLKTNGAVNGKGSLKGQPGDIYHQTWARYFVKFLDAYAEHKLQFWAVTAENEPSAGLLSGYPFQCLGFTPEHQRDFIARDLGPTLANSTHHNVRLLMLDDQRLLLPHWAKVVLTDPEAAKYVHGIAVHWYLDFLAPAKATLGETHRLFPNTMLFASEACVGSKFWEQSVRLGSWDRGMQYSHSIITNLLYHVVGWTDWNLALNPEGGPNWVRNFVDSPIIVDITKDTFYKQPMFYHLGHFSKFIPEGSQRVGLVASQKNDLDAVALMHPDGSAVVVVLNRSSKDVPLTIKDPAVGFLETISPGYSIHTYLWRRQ
Procedure, shortened: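 Compounds titrated against 0.2 nM normal enzyme, 30 uM resorufin beta-D-glucopyranoside substrate, citrate/phosphate buffer with taurocholate and tween-20, pH 5.9. Reaction ran 20 min at room temperature; fluorescence (Ex 548/Em 600) gave AC50.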
Potency means the concentration at half of the fitted maximal effect.

Potency, inactive:
CC(C)(C)OC(=O)NC(CCCCNC=O)C(=O)O (stereo unspecified) > 76.9 µM, COc1cccc(C(=O)CSc2nnc(CNc3nc(-c4ccccc4)cs3)n2C)c1, Cc1noc(C)c1C(=O)Nc1nc(C23CC4CC(CC(C4)C2)C3)cs1 > 76.9 µM, Cc1ccnc(SCC(=O)O)n1 > 76.9 µM, CC(C)(C)n1nnnc1C(c1cccc(C#N)c1)N1CCCc2ccccc21 (stereo unspecified) > 76.9 µM, CCn1c(=O)c(=O)[nH]c2cc(C(=O)N3CCN(c4ccccc4F)CC3)ccc21 > 76.9 µM, N#CC1=C(N)C2=C(N3CCCCC3)CCCC2C1(C#N)C#N (stereo unspecified) > 76.9 µM, COC(=O)c1ccc(Cn2nc(C)c(Br)c2C)cc1 > 76.9 µM, COc1ccc(CCN2C(=O)CC(N3CCN(c4ccccn4)CC3)C2=O)cc1OC (stereo unspecified) > 76.9 µM, CCC1CCCCN1CCn1c(=S)[nH]c2cc(OC)c(OC)cc2c1=O (stereo unspecified) > 76.9 µM, O=C(NCCSCc1ccccc1)c1cc(S(=O)(=O)N2CCOCC2)ccc1F > 76.9 µM, CN(C)S(=O)(=O)c1ccc(Oc2ccccc2)cc1 > 76.9 µM, CC1=C(C(=O)N2CCOCC2)C(c2ccccc2F)C2=C(CCCC2=O)N1 (stereo unspecified) > 76.9 µM, CC(=O)N1CCCc2cc(S(=O)(=O)N3CCN(C4CCCCC4)CC3)ccc21 > 76.9 µM, O=C(NCc1ccco1)C(C(=O)c1ccc(F)cc1)n1ccccc1=O (stereo unspecified) > 76.9 µM, CCOc1cc(C(=O)OCc2ccc(C(=O)OC)o2)cc(Br)c1OC > 76.9 µM, COc1cccc(OCC(O)CN2C(C)CCCC2C)c1 (stereo unspecified) > 76.9 µM, Cc1cc(C)nc(NC(=O)CSc2ccccn2)n1 > 76.9 µM, O=C(NCC1CCCO1)c1cccc(NC(=O)c2ccco2)c1 (stereo unspecified) > 76.9 µM, Clc1ccc(-c2nnc(SCc3ccon3)o2)c(Cl)c1 > 76.9 µM, CCOC(=O)c1cc(C(=O)c2cc(F)ccc2O)coc1=N > 76.9 µM, O=C(CCn1nc(-c2ccc(Cl)cc2)ccc1=O)N1CCOCC1 > 76.9 µM, c1nc(NCC2CCCO2)c2[nH]cnc2n1 (stereo unspecified) > 76.9 µM, CN(C)c1ccnc2sc3c(=O)n(-c4ccccc4)cnc3c12 > 76.9 µM, CC(C)(C)OC(=O)NC(CCNC=C1C(=O)OC(C)(C)OC1=O)C(=O)O (stereo unspecified) > 76.9 µM, O=C(Nc1ccc(N2CCOCC2)cc1)C1CCCN(S(=O)(=O)c2cccc(C(F)(F)F)c2)C1 (stereo unspecified) > 76.9 µM, CCOc1ccc(OCc2ccc(C(=O)N3CCCC3)o2)cc1 > 76.9 µM, O=C(O)CCN1Cc2ccccc2C1=O > 76.9 µM, CCc1c(C(=O)Nc2ccc(S(=O)(=O)N3CCOCC3)cc2)csc1C > 76.9 µM, COC(=O)c1oc2ccc(Br)cc2c1NC(=O)CN1CCN(C)CC1 > 76.9 µM, Cc1ccccc1CS(=O)(=O)Cc1ccc(C(=O)NCC2CCCO2)o1 (stereo unspecified) > 76.9 µM, O=C(CSc1ncn[nH]1)NCCCc1ccccc1 > 76.9 µM, COC(=O)c1c(N)n(-c2ccc(NC(C)=O)cc2)c2nc3ccccc3nc12, COn1c(SCc2cccnc2)nc2ccccc2c1=O > 76.9 µM, CCCOc1ccc(C(=O)N2CCCC2)cc1OC > 76.9 µM, CCc1cc(=O)oc2cc(OC(C)C(=O)O)c(Cl)cc12 (stereo unspecified) > 76.9 µM, CCOC(=O)c1cc(-c2nnc(SCC(=O)Nc3ccc(F)cc3)o2)c(C)nc1C > 76.9 µM, COC(=O)c1c(NC(C)=O)sc2c1CCCC2 > 76.9 µM, COc1ccc(S(=O)(=O)N2CCN(c3nc4ccccc4nc3-n3nc(C)cc3C)CC2)cc1 > 76.9 µM, COc1ccc(N2CCN(C(=O)CSc3ncnc4c3cnn4-c3ccccc3C)CC2)cc1 > 76.9 µM, COc1cccc2cc(C(=O)N3CCN(c4ncccn4)CC3)c(=O)oc12 > 76.9 µM, O=C(NCC(=O)N(c1cnc2ccccc2c1)C(C(=O)NC1CCCC1)c1ccncc1)c1ccco1 (stereo unspecified) > 76.9 µM, COC(=O)c1ccc(NC(=O)CCN2CCCCC2)cc1 > 76.9 µM, CC(=O)Nc1ccc(C(=O)n2nc(C)cc2C)cc1 > 76.9 µM, CCc1nnc(NC(=O)CN2CCN(C3CCCCC3)CC2)s1 > 76.9 µM, O=C(OCCN1CCCCC1)c1ccccc1Cl > 76.9 µM, c1ccc(-c2nnc3n2NC(c2ccc4c(c2)OCO4)S3)cc1 (stereo unspecified) > 76.9 µM, COc1ccc(OC)c(S(=O)(=O)Nc2ccc(O)c3ccccc23)c1 > 76.9 µM, COc1ccc(OCCC(=O)NC2=NCCS2)cc1 > 76.9 µM, COc1ccc(C)cc1NC(=O)CSc1nnc(-c2cc3cccc(OC)c3o2)n1N > 76.9 µM, COc1ccc(-c2nn(-c3ccccc3)cc2/C=N/n2cnnc2)cc1OC > 76.9 µM, COc1ccc(C(=O)NCc2nnc(SCC(=O)Nc3cc(C)cc(C)c3)o2)cc1OC > 76.9 µM, CCOc1ccccc1-n1nnnc1SCC(=O)Nc1cc2oc3ccccc3c2cc1OC > 76.9 µM, c1ccc(-c2noc(-c3cccc4ccccc34)n2)nc1 > 76.9 µM, CCCc1c(O)nc(SC2CC(=O)N(c3cc(OC)ccc3OC)C2=O)[nH]c1=O (stereo unspecified) > 76.9 µM, CCC(C)n1cnc2c(c1=O)c1nc3ccccc3nc1n2Cc1ccccc1OC (stereo unspecified), COc1cc(OC)cc(-c2nnc(Nc3nc4c(F)cccc4s3)o2)c1 > 76.9 µM, COc1cc(C)c(Br)cc1S(=O)(=O)N1CCCC1 > 76.9 µM, CCOC(=O)N1CCN(Cc2nc3c(c(=O)[nH]c(=O)n3C)n2Cc2ccccc2C)CC1 > 76.9 µM, O=C(CCn1c(=S)[nH]c2ccccc2c1=O)NCC1CCCO1 (stereo unspecified) > 76.9 µM, Cc1ccc(Cn2c(CN3CCN(C(=O)c4ccco4)CC3)nc3c2c(=O)n(C)c(=O)n3C)cc1 > 76.9 µM, COc1ccccc1NC(=O)CSc1nc(O)cc(=O)[nH]1 > 76.9 µM, Cn1c(SCC(=O)c2ccccc2)nc2cccnc21 > 76.9 µM, COC(=O)[C@H](C)NC(=O)Nc1ccc(S(N)(=O)=O)cc1 > 76.9 µM, COC(=O)c1ccc(-n2nnnc2SCC(=O)Nc2cc(OC)ccc2OC)cc1 > 76.9 µM, Cc1csc(NC(=O)Nc2ccc(Cl)cc2)n1 > 76.9 µM, Cc1cc(C(=O)Nc2c(F)cc(F)cc2Br)no1 > 76.9 µM, c1nc(COc2nsnc2N2CCOCC2)cs1 > 76.9 µM, O=c1c(/C=N/O)coc2ccc3ccccc3c12 > 76.9 µM, CC1CCCC(C)N1CCNC(=O)Cn1nc(-c2ccccc2)ccc1=O (stereo unspecified) > 76.9 µM, COc1ccc(OC)c(S(=O)(=O)Nc2ccc(CC(=O)O)cc2)c1 > 76.9 µM, CCOC(=O)Nc1ccc(S(=O)(=O)N2CCOCC2)cc1 > 76.9 µM, COCCN1CN=C(Nc2nc(C)c3ccc(C)cc3n2)NC1 > 76.9 µM, CCN(CC(=O)Nc1ccc2c(c1)OCCO2)C(=O)c1cccc(S(=O)(=O)N2CCOCC2)c1 > 76.9 µM, c1ccc2c3nnc4n(c-3nc2c1)CCCS4 > 76.9 µM, CCC(Sc1nc2cc(OC)c(OC)cc2c2nc(C)nn12)C(=O)NCc1ccco1 (stereo unspecified) > 76.9 µM, COc1cc(S(=O)(=O)N(Cc2cccs2)CC2CCCO2)ccc1-n1cnnn1 (stereo unspecified) > 76.9 µM, CC(C)C(OC(=O)c1ccco1)C(=O)NCc1ccco1 (stereo unspecified) > 76.9 µM, Cc1ccc2c(C)nc(Nc3nc(CSc4nnnn4-c4ccccc4)cc(=O)[nH]3)nc2c1 > 76.9 µM, CSCCc1nc(SCC(=O)Nc2nnc(C)s2)[nH]c1C > 76.9 µM, Oc1ccc(N2CCN(c3ncnc4sc5c(c34)CCC5)CC2)cc1 > 76.9 µM, CC(NC(=O)C(c1ccccc1)c1ccccc1)C(=O)O (stereo unspecified) > 76.9 µM, Cn1c(=O)c2c(nc(SCC(=O)N3CCCc4ccccc43)n2C)n(C)c1=O > 76.9 µM, Cc1ccccc1-c1nc(Cc2ccc(Cl)cc2)no1 > 76.9 µM, O=c1c2oc3ccccc3c2ncn1Cc1ccccc1Cl > 76.9 µM, COc1ccc(OC)c(-c2nnc(SCC(=O)N3CCCc4ccccc43)o2)c1 > 76.9 µM, CCC(C)N(C(=O)COC(=O)c1cn(CC)c2nc(C)ccc2c1=O)C1CCS(=O)(=O)C1 (stereo unspecified) > 76.9 µM, O=C(c1cccs1)N1CCC(c2nc3c(nnn3Cc3ccccc3)c(=O)[nH]2)CC1 > 76.9 µM, CCOC(=O)N1CCC(NC(=O)CCC(=O)N2CC(C)Oc3ccccc32)CC1 (stereo unspecified) > 76.9 µM, COc1cc(C(=O)N(Cc2ccc(N(C)C)cc2)C2CCS(=O)(=O)C2)cc(OC)c1OC (stereo unspecified) > 76.9 µM, Cc1cccc(N2CCN(C(=O)c3ccc(Cl)c(S(=O)(=O)NCc4ccco4)c3)CC2)c1C > 76.9 µM
